Test results reported in the supplement of paper PMC3334620.
In all, about 33,000 sequences were measured (“E-score (-0.5 to 0.5)”: median about -0.04, highest 2% from about 0.36 on). The list shows a part of the results.

biological target: T1, Hmlalpha2 (UniProt P0CY09); test: PBM E-score (8-mer binding enrichment) (E-score (-0.5 to 0.5)); higher = stronger / more preferred TF binding; most listed sequences are background and not binding sites; settings: protein concentration: 200 nM; construct: GST-full length
T1 sequence: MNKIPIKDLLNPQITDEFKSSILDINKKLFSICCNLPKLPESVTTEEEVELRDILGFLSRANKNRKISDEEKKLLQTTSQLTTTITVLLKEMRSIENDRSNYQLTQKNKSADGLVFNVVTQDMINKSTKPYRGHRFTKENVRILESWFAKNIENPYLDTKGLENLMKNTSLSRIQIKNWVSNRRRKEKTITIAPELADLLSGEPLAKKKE
Procedure: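 Universal 'all 10-mer' protein binding microarrays (Agilent AMADID 015681) probed with GST-tagged S. cerevisiae TFs (full-length or DBD) made by in vitro transcription/translation (PURExpress), about 100-200 nM. Bound TF was detected with fluorescent anti-GST. Each ungapped 8-mer (which stands for itself and its reverse complement) is scored by the PBM enrichment score (E-score), a modified Wilcoxon-Mann-Whitney statistic from -0.5 to +0.5, computed with the Universal PBM Analysis Suite. Scale: above 0.35 generally sequence-specific binding.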

Sequence | PBM E-score
CAGCAAGG | -0.129
GTTCCATA | -0.146
CAGTGGCA | -0.209
CAGAATTA | 0.0802
AGGGATGA | -0.29
CGAAGTAA | 0.176
ATGGCCCC | -0.283
GCGATACA | 0.186
ATATCAAT | 0.206
ACATCTGA | -0.0848
CCGCGCTA | -0.0189
AATTGCAT | -0.0272
ATCCTCTG | -0.179
CTAGATAA | -0.0347
AACACTAG | 0.0745
ACGTGTAT | 0.402
ATACGGCA | 0.103
ACTGTGCC | -0.0891
GGTTTAGA | -0.168
AAGATCCG | -0.207
CTAACGAC | 0.0559
CGAGGCCC | -0.196
GGACAACC | -0.066
CCAACGTA | 0.16
ATCCATGC | -0.126

Sequence | PBM E-score
CCCTGAGA | -0.329
TACGCAGA | 0.265
TGAAACAA | 0.0941
AACCTCCG | -0.0959
CGTAAGAC | 0.053
TAGTATAA | 0.232
AAAGCCCT | -0.223
GCGTCCCA | -0.195
ATCTGGGG | -0.267
GATGTGGC | -0.213
CTCGCGTA | 0.22
CCAGGACC | -0.29
GTGTACCA | 0.3
ATTCACTA | 0.16
TATATCGA | 0.0637
GAGCGGAC | -0.405
ACCATTAC | 0.198
CCAACCCC | -0.0591
CAACGTGG | 0.249
TGCACCCA | -0.121
CGAAAGCA | 0.0341
CATTGTCA | 0.139
GACTTCTC | -0.106
ATAGGGTC | -0.185
AGGTAGAC | -0.186

Sequence | PBM E-score
GTATGGGA | -0.211
GGATCTCA | -0.142
CGTGATAC | 0.0362
AATGCGGC | -0.0778
GCAACTCC | -0.0764
CCTCCCTC | -0.267
GAACCCAA | -0.0846
ATCAGATG | 0.0265
ATTTGACG | 0.149
GGTTACAC | 0.314
GAAATTGC | -0.102
CCCGAGAC | -0.172
AAACCACG | -0.0899
ACCTGCAC | -0.158
GGGGGAAC | -0.26
CATATCGC | -0.0679
CGGTGGTA | -0.0335
GTAGGTCA | -0.111
GACATCCA | -0.0937
GAGTTGGA | -0.151
GAGGCAGC | -0.254
GCCAATCA | -0.192
AGTCATTA | 0.0219
AGGACTGA | -0.154
CGCTAAGC | 0.184

Sequence | PBM E-score
ACAGAGAC | 0.0124
ACACTCGC | 0.0406
GCGACTTA | -0.0185
ACACGCTA | 0.414
AGTCATGA | -0.108
CGATAAAG | -0.0396
CTCCGTAC | -0.191
AGCCAGAG | -0.243
AGGTCACC | -0.252
CAATGTAG | 0.172
GACGTAGA | 0.0476
ACCCAGCT | -0.187
ACGCCGGG | -0.144
AGATCATG | 0.0318
AAGTGCAC | -0.0185
CCTGTCTC | -0.282
AATAATAC | 0.205
TACAGGCA | 0.167
GTGTACAC | 0.415
AGGGCATA | -0.164
CGTGTTAC | 0.41
GTGAGTAA | 0.258
ATTGATTA | 0.213
GTATAATA | 0.368
ATTAAATC | 0.173

Sequence | PBM E-score
GTCCTAAA | 0.0308
ACCGGGGG | -0.342
ACGTCGCC | -0.0245
ACCCTTTG | -0.331
CCACCAGG | -0.268
AGTAGGGC | -0.0369
CGTTTTAC | 0.301
AACGGGAT | -0.155
CTACGCCC | -0.211
CTATAAAC | 0.124
TAGTTCGA | 0.112
CTAGATTA | 0.114
CAGTACGA | -0.014
TCCAACGA | 0.0156
ACCGAAAC | -0.031
CTTAGGGC | -0.128
AGTGGTAG | -0.175
CAAAGTCG | 0.0302
ATTGTGCC | -0.142
GCGCGAAC | -0.0057
ATGGTAGG | -0.138
GTAGCTCA | 0.0324
TAACGACA | 0.281
GATTCGGC | -0.0401
ATCAAAGA | -0.0111

Sequence | PBM E-score
GCCTATCC | -0.262
CCCTAGAG | -0.232
ACGTTCAA | 0.206
GGATAACA | 0.28
AGCATGTC | 0.267
ATATTAGG | 0.0302
AGGATGGA | -0.311
AGTACCCC | -0.145
ATCGACAA | 0.0291
ATTGCAAT | -0.0745
GCCACTCA | -0.231
GACTCACC | -0.263
TATAGGAA | 0.104
CTTCGAAC | -0.0996
GGACTGCA | -0.141
GTATCAGA | -0.00972
CAGTTGTC | -0.0222
ATCGGCGG | -0.29
CTTGGGTA | 0.0421
GACTAGAA | -0.0547
CGGACCCC | -0.179
ACATCAGC | 0.0796
ACGTGCCT | 0.0976
ATTTGGGA | -0.168
AAACTAAT | 0.175

Sequence | PBM E-score
GTTACAAC | 0.258
ATCTTCGG | 0.177
ATCCCATC | -0.181
AGCCTGCG | -0.16
ATGTCAAT | 0.4
GAGTGGTA | -0.0287
GTCCCCAC | -0.345
AATCGAAC | 0.0857
ATGGAAAA | 0.126
ACCTCCAA | -0.0293
ACGGGTCA | -0.221
CCTGATCG | -0.296
GAGCTAAA | -0.115
TCCTGCCA | -0.249
ATTTGTGA | 0.00713
AAATTGAT | 0.0196
GGACAAAC | 0.0772
AACATCCA | 0.187
ATCAATGC | -0.0943
ATAGCCAG | -0.0612
GAAAAGGA | -0.129
GACCAAGC | -0.0531
